Laboratory results: PubChem BioAssay AID485294 (National Center for Advancing Translational Sciences (NCATS), 2010)
In all, about 370,000 compounds went through this assay and about 150 (0.041%) were called active. The shares of active, inactive and inconclusive entries below differ from those in the screen. Calls come from the whole dose curve; as a rule, active = well fitted inhibition curve with a large enough effect; inconclusive = small, poorly fitted or top-dose-only effect; inactive = flat fitted curve, though single readings scatter. Potencies of inconclusive entries are left out as doubtful fits.

Molecular target: Beta-lactamase (Escherichia coli (strain K12)) (UniProt P00811)
UniProt P00811, sequence (P00811 whole entry, looked up): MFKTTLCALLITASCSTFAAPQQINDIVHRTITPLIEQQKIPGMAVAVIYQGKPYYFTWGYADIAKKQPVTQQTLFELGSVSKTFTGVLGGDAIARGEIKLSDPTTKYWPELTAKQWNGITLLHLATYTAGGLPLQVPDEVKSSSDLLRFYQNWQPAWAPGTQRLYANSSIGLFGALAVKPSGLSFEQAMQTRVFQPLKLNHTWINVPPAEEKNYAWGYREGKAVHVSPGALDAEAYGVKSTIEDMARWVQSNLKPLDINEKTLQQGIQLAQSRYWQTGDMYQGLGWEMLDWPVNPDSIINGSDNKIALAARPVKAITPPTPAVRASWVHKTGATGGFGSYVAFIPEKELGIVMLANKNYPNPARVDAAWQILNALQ
Assay: qHTS Inhibitors of AmpC Beta-Lactamase (assay with detergent); note: nearly all actives have a fitted effect of over 25% in size;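 for activity change, negative = inhibition: 0% = no-compound wells and -100% = no-enzyme wells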
Settings: AmpC hydrolysis of nitrocefin, absorbance 480 nm, 0.01% Triton; activity change, negative = inhibition: at 114 µM (top of the series)
Summary of the method: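 AmpC (5.3 nM in the dispensed reagent) in 20 mM phosphate pH 7.0 with 0.01% (detergent screen) or 0.0001% Triton X-100 was preincubated with compounds for 15 min at room temperature. Nitrocefin was then added from an 800 uM solution, and hydrolysis was followed at 480 nm.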
Potency is the fitted concentration of half-maximal effect; tags give direction and shape of the fitted curve.

SMILES | Potency | activity change, negative = inhibition
O=C(CCc1ccc(S(=O)(=O)N2CCOCC2)cc1)N1CCN(Cc2ccc3c(c2)OCO3)CC1 | inconclusive [inhibitor, single point] | –
CCc1ccccc1NC(=O)Cn1nnc(-c2nc(-c3ccc(C)cc3)no2)c1N | – | inactive: 2.36%
Cc1cc(=O)[nH]c(SCc2ccccc2)n1 | – | inactive: -9.7%
CCOC(=O)C1CCCN(C(=O)c2ccc(OC)c([N+](=O)[O-])c2)C1 (configuration not stated) | inconclusive [inhibitor, single point] | –
COc1cccc(C(=O)NCC(c2ccc(N(C)C)cc2)N2CCc3ccccc32)c1 (configuration not stated) | – | inactive: 25.4%
COc1ccc(/C=N/NC(=O)c2ccncc2)cc1Cn1nc([N+](=O)[O-])c(Br)c1C | inconclusive [inhibitor, partial curve] | –
COC(=O)c1cc2oc(C)cc2n1CC(=O)N1CCCc2ccccc21 | – | inactive: -3.07%
O=C(CSc1nnc(COc2ccccc2)n1Cc1ccco1)c1ccc(F)cc1 | – | inactive: 9.13%
COc1ccc(-n2c(Cc3cccn3C)nnc2SCC(=O)NCC2CCCO2)cc1 (configuration not stated) | inconclusive [inhibitor, partial curve] | –
CC1CCN(C(=O)COC(=O)Cc2ccc(Br)cc2)CC1 | – | inactive: -9.31%
Cc1c(C(=O)N2c3ccccc3CC2C)oc2ccccc12 (configuration not stated) | – | inactive: 2.97%
Clc1ccccc1N/N=C/c1ccc2c(c1)OCO2 | inconclusive [inhibitor, full curve] | –
CCc1ccccc1OCC(=O)Nc1cccc(S(=O)(=O)NCc2ccco2)c1 | inconclusive [inhibitor, full curve] | –
O=C(c1ccc(CS(=O)(=O)c2ccc(Br)cc2)o1)N1CCN(C2CCCCC2)CC1 | inconclusive [inhibitor, full curve] | –
Cc1ccc(C(=O)N/C(=C\c2cn(S(=O)(=O)N(C)C)c3ccccc23)C(=O)NCCN2CCOCC2)cc1 | inconclusive [inhibitor, full curve] | –
COCCC(=O)N1CCC(Oc2ccc(C(=O)NCc3cc(C)n(C)n3)cc2)CC1 | inconclusive [inhibitor, partial curve] | –
Cc1ccnc(SCc2cc(=O)c(OC(=O)c3ccc(Br)o3)co2)n1 | inconclusive [inhibitor, full curve] | –
COc1ccc(COC(=O)CCS(=O)(=O)c2ccc(C)cc2)cc1 | inconclusive [inhibitor, full curve, poor fit] | –
COc1cccc(NC(=O)CN(C)CC(=O)Nc2ccccc2-c2ccccc2)c1 | inconclusive [inhibitor, partial curve] | –
Cc1cc(NCCOCCO)n2ncc(-c3ccc(Cl)cc3)c2n1 | inconclusive [inhibitor, single point] | –
CC(C)c1ccc(OCC(=O)N2CCN(C)CC2)c(Br)c1 | inconclusive [inhibitor, single point] | –
O=C(OCC(=O)N1CCc2ccccc21)c1cncc(Br)c1 | inconclusive [inhibitor, full curve] | –
Cc1ccc(C(C)(C)NC(=O)C2CCC(=O)N(Cc3ccccc3F)C2)cc1 (configuration not stated) | – | inactive: -1.59%

SMILES | Potency | activity change, negative = inhibition
S=C(Nc1ccc(Cl)c(Cl)c1)NC1CCN(Cc2ccccc2)CC1 | inconclusive [inhibitor, full curve] | –
O=C1CCCN1c1ccc(S(=O)(=O)Oc2ccc(Cl)cc2)cc1[N+](=O)[O-] | – | inactive: 10.2%
COc1ccc(-c2n[nH]c(=S)n2-c2cc(OC)ccc2OC)cc1 | inconclusive [inhibitor, full curve, poor fit] | –
CCOC(=O)C1=C(C)NC(C)=C(C(=O)OCC)C1C | inconclusive [inhibitor, partial curve, poor fit] | –
CCOC(=O)N1CCN(C(=O)COC(=O)C2CCN(S(=O)(=O)c3ccc(C)c(C)c3)CC2)CC1 | inconclusive [inhibitor, full curve, poor fit] | –
CCN1CCN(c2ccc(NC(=O)c3ccc4c(c3)[nH]c(=O)n4Cc3ccc(OC)cc3)cc2)CC1 | inconclusive [inhibitor, partial curve, poor fit] | –
N#Cc1cccn1-c1nccs1 | inconclusive [inhibitor, single point] | –
O=C(NCCNCc1cccs1)c1ccccc1F | inconclusive [inhibitor, full curve, poor fit] | –
Cc1[nH]c(=O)c(C#N)cc1-c1ccncc1 | inconclusive [inhibitor, full curve, poor fit] | –
COc1cccc(C(=O)Nn2c(C)nnc2-n2nc(C)cc2C)c1 | inconclusive [inhibitor, single point] | –
COCCCNS(=O)(=O)c1ccccc1 | inconclusive [inhibitor, full curve, poor fit] | –
COc1cc(NC(=O)COC(=O)c2ccc(C)c(S(=O)(=O)N3CCCCC3)c2)c(C)cc1[N+](=O)[O-] | – | inactive: -0.969%
CCn1c(SCC(=O)N2CCN(c3ccccc3)CC2)nnc1-c1c[nH]c2ccccc12 | inconclusive [inhibitor, full curve, poor fit] | –
CCCn1cc(SCC(=O)NCc2ccco2)c2ccccc21 | – | inactive: -10.3%
CC(C)Oc1ccc(C(=O)NC2CCN(Cc3ccccc3)CC2)cc1 | inconclusive [inhibitor, full curve, poor fit] | –
Cc1cc(CSc2ccccc2)ccc1NC(=O)c1ccc(CN2CCOCC2)cc1 | – | inactive: -4.05%
CCOc1c(C)cnc2c1c(=O)n(CC(=O)NCC1CCCO1)c(=O)n2C (configuration not stated) | inconclusive [inhibitor, full curve] | –
COC(=O)c1ccc(CSc2nc(C)nc3sc(C)c(C)c23)o1 | – | inactive: -8.06%
CCOC(=O)c1ccc(NC(=O)CSc2nc(C)nc3c2c(=O)n(C)c(=O)n3C)cc1 | inconclusive [inhibitor, partial curve] | –
CC(=O)c1ccc2c(c1)C1C(Cl)C(Sc3ccccc3[N+](=O)[O-])CC1C(c1ccccc1[N+](=O)[O-])N2 (configuration not stated) | – | inactive: -5.02%
Cn1c(=O)c2c(nc(Br)n2Cc2nnc(N)s2)n(C)c1=O | inconclusive [inhibitor, single point] | –
O=S(=O)(/N=C(/c1ccccc1)N1CCCCC1)c1ccccc1 | – | inactive: -11.4%
CCN(CC)c1ccc(/C=N/NC(=O)c2c[nH]c3ccccc23)cc1 | inconclusive [inhibitor, single point] | –

SMILES | Potency | activity change, negative = inhibition
COc1ccccc1C(=O)NCCC(=O)NN1C(=O)NC2(CCCCC2)C1=O | inconclusive [inhibitor, partial curve, poor fit] | –
CCC(C#CCN1CCOCC1)(CC)OCCC#N | inconclusive [inhibitor, partial curve, poor fit] | –
O=C(CNC(=O)c1ccco1)OCc1ccc(Cl)cc1 | – | inactive: -3%
Cc1ccc(-n2c3c(cc(-c4nc(-c5ccc(Cl)cc5)cs4)c2=O)C(=O)CC(C)(C)C3)cc1C | – | inactive: 19.6%
O=C(c1cc(F)ccc1F)C1CCCN(C(=O)c2ccc3nccnc3c2)C1 (configuration not stated) | – | inactive: -1.22%
COc1ccc(S(=O)(=O)N2CCC(C(=O)NC3(C)CCS(=O)(=O)C3)CC2)cc1OC (configuration not stated) | inconclusive [inhibitor, single point] | –
CCSc1nnc(NC(=O)CSc2nnc(Cc3cccn3C)n2-c2ccc(C)cc2)s1 | inconclusive [inhibitor, single point] | –
CCCCn1c(N)c(N(CC)C(=O)CSCC(=O)Nc2ccc(OC)cc2)c(=O)[nH]c1=O | inconclusive [inhibitor, partial curve, poor fit] | –
Cc1ccc(C(=O)COC(=O)CNS(=O)(=O)c2ccccc2)cc1[N+](=O)[O-] | – | inactive: -0.871%
O=C(NCCCN1CCN(c2ccc(F)cc2)CC1)c1cnn(-c2ccc(F)cc2)c1-n1cccc1 | inconclusive [inhibitor, single point] | –
COc1ccc(S(=O)(=O)NCCNC(=O)N2CCOCC2)cc1 | inconclusive [inhibitor, single point] | –
Cc1csc(NC(=O)CCc2c(C)nc3cc(-c4ccc(Cl)cc4)nn3c2C)n1 | inconclusive [inhibitor, partial curve] | –
COC(=O)c1ccc(NC(=O)CSc2nncn2C)cc1 | inconclusive [inhibitor, single point] | –
CCN(CC)C(=O)C1CCCN(C(=O)CCn2nnnc2CN2CCOCC2)C1 (configuration not stated) | – | inactive: 0.584%
Cc1ccc2c(c1)N=C(c1ccc(F)cc1)CO2 | inconclusive [inhibitor, single point] | –
CCc1cccc(NS(=O)(=O)c2ccc(-n3cccn3)cc2)c1 | inconclusive [inhibitor, full curve] | –
Cc1ccc(NC(=O)CSCC(=O)N=c2sccn2C)cc1 | inconclusive [inhibitor, full curve, poor fit] | –
Nc1c(C(=O)NCc2ccc(Cl)cc2)sc2nc3c(c(C(F)(F)F)c12)CCC3 | inconclusive [inhibitor, partial curve, poor fit] | –
Cc1ccccc1N1C(=O)/C(=C/c2ccco2)C(=O)NC1=S | active: 44.7 µM | –
CCN(CC)CCCNC(=O)CCn1nc(-c2ccccc2)ccc1=O | inconclusive [inhibitor, single point] | –
Cc1cc2cc(CNC(=O)c3ccc(S(=O)(=O)N4CCOCC4)cc3)ccc2n1C | inconclusive [inhibitor, partial curve] | –
